Data: publication PMC8123419, “Effect of Posttranslational Modifications on the Structure and Activity of FTO Demethylase” (International Journal of Molecular Sciences, 2021)

What was measured:
[1] = molecular target: the molecule itself; assay: SAXS; 26 uM ^BESFTO in SAX1 buffer (HEPES/MES pH 7.0, 150 mM NaCl, 2-OG, Fe2+, 0.5 mM CaCl2); low-resolution bead model (~12-20 A)
[2] = molecular target: the molecule itself; assay: MST; NT-647-NHS-labelled ^BESFTO titrated with unlabelled ^BESFTO; buffers MST1 (no cofactor), MST2 (Fe2+ only) or MST3 (2-OG only); room temperature; dimer to monomers
[3] = molecular target: the molecule itself; assay: MST; NT-647-NHS-labelled FTO titrated with unlabelled FTO; MST4 buffer: 50 mM MES pH 6.1, 150 mM NaCl, 0.05% TWEEN 20, 2 mM ascorbic acid, 1 mM 2-OG, 0.5 mM Fe2+ (holo); room temperature; dimer to monomers

B1: FTO protein expressed in baculovirus expression system (^BESFTO), N-terminally His-tagged human FTO (enzyme)
chain: not shown
modifications: phosphoserine at S184, S256 and S260, partial (extent estimated at 3% for S184, 37% for S256, 19% for S260)
notes: carries a spontaneous S246G replacement; A mixture of forms with zero (dominant) to three phosphoserines; In MST one copy was labelled on lysines with NT-647-NHS and titrated with unlabelled protein; also called ^BSEFTO; source: Sf21 insect cells, recombinant baculovirus, purified (Ni-charged resin, size-exclusion chromatography); not shown: His tag, N-terminal, kept
B1 was tested, and the “stoichiometry N” value [1] was 2, the Kd [2] was 0.34 µM and the Kd [3] was 1.99 µM.
